The list shows a part of the results.
system: S. aureus RN4220; test: growth inhibition call (relative growth <= 0.2); details: 50 µM

Row | SMILES | growth inhibition call
1 | COc1ccc(S(=O)(=O)N[C@@H]2CC[C@H](CC(=O)N3CCN(c4ccccc4)CC3)O[C@H]2CO)cc1 | inactive
2 | C[C@@H]1CN([C@@H](C)CO)C(=O)c2cccc(NC(=O)C3CCCCC3)c2O[C@H]1CN(C)Cc1ccc(Oc2ccccc2)cc1 | inactive
3 | CN1C(=O)c2cc(NC(=O)c3cnccn3)ccc2OC[C@@H]2O[C@H](CC(=O)NCC3CCCCC3)CC[C@H]21 | inactive
4 | C[C@@H]1CN([C@H](C)CO)C(=O)c2cc(NS(=O)(=O)c3ccc(Cl)cc3)ccc2O[C@H]1CN(C)Cc1ccc(Oc2ccccc2)cc1 | inactive
5 | C[C@H](NCc1ccc(OCC(N)=O)cc1)C(N)=O | inactive
6 | Cc1noc(C)c1S(=O)(=O)Nc1ccc2c(c1)C(=O)N([C@@H](C)CO)C[C@@H](C)[C@@H](CN(C)S(=O)(=O)c1c(C)noc1C)O2 | inactive
7 | COCC#Cc1ccc([C@H]2[C@H]3CN(C(=O)C4CCOCC4)CC(=O)N3[C@H]2CO)cc1 | inactive
8 | C[C@@H]1CN([C@H](C)CO)C(=O)c2cccc(NS(=O)(=O)c3ccccc3)c2O[C@@H]1CN(C)Cc1ccncc1 | inactive
9 | COc1ccc(S(=O)(=O)Nc2ccc3c(c2)C(=O)N([C@@H](C)CO)C[C@@H](C)[C@@H](CN(C)S(=O)(=O)c2cccs2)O3)cc1 | inactive
10 | Cc1ccc(S(=O)(=O)N(C)C[C@H]2Oc3ccc(NS(=O)(=O)c4cccs4)cc3CC(=O)N([C@H](C)CO)C[C@@H]2C)cc1 | inactive
11 | COc1cccc(NC(=O)N(C)C[C@H]2Oc3cc(C#CC4(O)CCCC4)ccc3S(=O)(=O)N([C@H](C)CO)C[C@H]2C)c1 | inactive
12 | C[C@@H]1S[C@H](C)C(=O)NC1=O | inactive
13 | C[C@@H]1CN([C@@H](C)CO)C(=O)c2cccc(NS(=O)(=O)c3cn(C)cn3)c2O[C@@H]1CN(C)S(=O)(=O)c1cn(C)cn1 | inactive
14 | Cc1cnc(N)c(C)n1 | inactive
15 | O=C(CCc1cn(CC(=O)N2CCC3(CC2)C(=O)NCN3c2ccccc2)nn1)NO | active
16 | CO/N=C(\C(=O)N[C@@H]1C(=O)N2C(C(=O)O)=C(CSc3nnnn3C)CS[C@H]12)c1csc(N)n1 | inactive
17 | C[C@@H]1CN([C@H](C)CO)C(=O)c2cc(NC(=O)Cn3cnnn3)ccc2O[C@@H]1CN(C)Cc1ccc(Oc2ccccc2)cc1 | inactive
18 | Cc1noc(C)c1S(=O)(=O)N(C)C[C@@H]1Oc2ccc(NC(=O)c3ccncc3)cc2CC(=O)N([C@@H](C)CO)C[C@@H]1C | inactive
19 | C[C@H](CO)N1C[C@H](C)[C@H](CN(C)Cc2ccc(C(F)(F)F)cc2)OCCCC[C@H](C)Oc2ccc(NC(=O)Nc3ccc(F)cc3)cc2C1=O | inactive
20 | COc1ccc(-c2nc(-c3ccc(C)cc3C)cs2)cc1 | inactive

Row | SMILES | growth inhibition call
21 | CN1Cc2c(CN3CCCC3=O)nn(C)c2C1 | inactive
22 | C=CC1(C)CC(=O)C2(O)C(C)(O1)C(O)C(O)C1C(C)(C)CCC(O)C12C (stereo not given) | inactive
23 | C[C@@H]1CN([C@H](C)CO)S(=O)(=O)c2ccc(C#Cc3ccncc3)cc2O[C@H]1CN(C)C(=O)C1CCC1 | inactive
24 | CCC(C)C1OC2(C=CC1C)CC1CC(CC=C(C)C(OC3CC(OC)C(OC4CC(OC)C(NC(C)=O)C(C)O4)C(C)O3)C(C)C=CC=C3COC4C(O)C(C)=CC(C(=O)O1)C34O)O2 (stereo not given) | inactive
25 | Cc1noc(C)c1NC(=O)N(C)C[C@@H]1Oc2c(NC(=O)c3ccc(-c4nccs4)cc3)cccc2C(=O)N([C@H](C)CO)C[C@@H]1C | inactive
26 | C[C@@H]1CN([C@@H](C)CO)C(=O)c2cc(NC(=O)C3CCCCC3)ccc2O[C@@H](C)CCCCO[C@@H]1CN(C)S(=O)(=O)c1ccc(Cl)cc1 | inactive
27 | C[C@@H]1CCCCO[C@H](CN(C)C(=O)Nc2ccc(C(F)(F)F)cc2)[C@H](C)CN([C@H](C)CO)C(=O)c2cc(NC(=O)Nc3ccc(C(F)(F)F)cc3)ccc2O1 | inactive
28 | Cc1ccc(Cc2nc(-c3ccc(Cl)cc3)cs2)cc1 | inactive
29 | C[C@@H]1CN([C@@H](C)CO)C(=O)c2cccc(NC(=O)Nc3ccc(F)cc3)c2O[C@H]1CN(C)CC1CCCCC1 | inactive
30 | COc1ccc(C#Cc2cnc3c(c2)C(=O)N([C@H](C)CO)C[C@@H](C)[C@@H](CN(C)C(=O)CC2CC2)O3)cc1 | inactive
31 | C[C@H](CO)N1C[C@H](C)[C@H](CN(C)S(=O)(=O)c2cn(C)cn2)Oc2c(NC(=O)C3CC3)cccc2C1=O | inactive
32 | C[C@H](CO)N1C[C@H](C)[C@@H](CN(C)Cc2ccc(C(F)(F)F)cc2)Oc2ccc(NC(=O)Cc3cn(C)c4ccccc34)cc2C1=O | inactive
33 | C[C@@H]1CN([C@@H](C)CO)C(=O)c2cccc(NC(=O)C3CCCCC3)c2O[C@H]1CN(C)C(=O)Nc1cccc2ccccc12 | inactive
34 | CC(C)(Sc1cc(C(C)(C)C)c(O)c(C(C)(C)C)c1)Sc1cc(C(C)(C)C)c(OC(=O)CCC(=O)O)c(C(C)(C)C)c1 | inactive
35 | CC[C@@H](CO)NCCN[C@@H](CC)CO | inactive
36 | CSc1cccc2sc(Nc3ccc(Cl)cc3)nc12 | active
37 | C[C@H](CO)N1C[C@H](C)[C@@H](CN(C)Cc2ccc3c(c2)OCO3)OCCCC[C@H](C)Oc2ccc(NS(=O)(=O)c3ccc(Cl)cc3)cc2C1=O | inactive
38 | COCC#Cc1ccc([C@@H]2[C@@H](CO)N3C(=O)CN(C(=O)C4CCOCC4)C[C@@H]23)cc1 | inactive
39 | CCOC(=O)c1cccnc1N | inactive
40 | C[C@H]1CCCCO[C@@H](CN(C)S(=O)(=O)c2ccc(F)cc2)[C@@H](C)CN([C@@H](C)CO)C(=O)c2cc(NC(=O)NC3CCCCC3)ccc2O1 | inactive
